The source of these data is PubChem BioAssay AID1346428 (National Center for Advancing Translational Sciences (NCATS), 2018).

Out of some 48,000 compounds screened, about 1,200 (2.5%) were called active. Another 2% or so got no clear call; they are omitted.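 Rule for the calls: active = activation of at least 60% and not above a set upper limit (about 1 call in 100 departs from these limits); inconclusive = activation of 40% to 60%, or above that upper limit; inactive = activation under 40%.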 The list shows a part of the results.

UniProt O75388, sequence (O75388 whole entry, looked up): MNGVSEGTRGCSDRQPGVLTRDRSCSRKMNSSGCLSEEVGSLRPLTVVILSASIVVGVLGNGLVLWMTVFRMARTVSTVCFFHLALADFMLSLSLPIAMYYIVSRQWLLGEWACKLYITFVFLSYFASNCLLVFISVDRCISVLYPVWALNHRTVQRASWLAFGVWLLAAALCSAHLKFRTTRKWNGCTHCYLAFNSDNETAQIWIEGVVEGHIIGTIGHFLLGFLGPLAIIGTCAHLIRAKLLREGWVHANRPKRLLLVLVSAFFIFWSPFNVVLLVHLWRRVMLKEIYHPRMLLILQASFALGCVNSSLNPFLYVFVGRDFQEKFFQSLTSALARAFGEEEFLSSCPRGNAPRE

For the test, the target named is Probable G-protein coupled receptor 32 (Homo sapiens) (UniProt O75388). Kind of test: qHTS for Agonists of Human Resolvin D1 Receptor DRV1. Note: 0% is about no effect. As to conditions: CHO-K1 GPR32 beta-arrestin PathHunter luminescence, 90 min; at 76.9 µM; active compounds read high; zero percent set by DMSO-only wells. In outline:
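Luminescent readout of beta-Gal complementation quantifies ligand-induced beta-arrestin association with GPR32 in CHO-K1 cells; 90 min compound incubation at 37 °C, detection 1 h at room temperature.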
As for `COc1ccc(CCNC(=O)CSc2nnc(-c3ccc(C)cc3)c(-c3ccc(C)cc3)n2)cc1OC`, the activation was inactive: -48.1%.
Turning to `CCCCOc1cccc(C(=O)N(Cc2ccc(Cl)cc2)C2CCS(=O)(=O)C2)c1` (stereo not drawn), the activation is inactive: -9.63%.
`Cc1ccc(-c2noc(-c3ccc(NCC4CCCO4)c([N+](=O)[O-])c3)n2)cc1` (stereo not drawn): the activation is inactive: 4.64%.
Next, `CC(=O)c1ccc(N2CCN(C(=O)CS(=O)(=O)c3cccc4nsnc34)CC2)cc1`: active: 88.5%; `COc1cccc(C2=NN(S(C)(=O)=O)C(c3cn(-c4ccccc4)nc3-c3cccs3)C2)c1` (stereo not drawn): inactive: -4.61%.
As for `COc1ccc(CNC(=O)CN(C)c2nn3c(=O)cc(C)nc3s2)cc1`, the figure is inactive: 8.98%.
Next, `CC(=O)Oc1ccc(C2(c3ccc(OC(C)=O)cc3)Oc3ccccc3NC2=O)cc1`: inactive: -20.3%; `Cc1cc(=O)[nH]c2nnc(SCCC(C)C)n12`: inactive: 39.6%; `CCOc1ccc(C(=O)NCCS(=O)(=O)N2CCN(c3cccc(Cl)c3)CC2)cc1`: inactive: 6.5%.
As to `COc1ccccc1NC(=O)N1CC=C(c2c[nH]c3ccccc23)CC1`, the activation was inactive: -19%.
In the case of `COc1ccc(C(=O)c2cn(Cc3ccccc3F)c3ccc(F)cc3c2=O)cc1`, the activation is inactive: -9.17%.
For `Cc1ccc(-c2nnc(Nc3ccc(Cl)cc3)c3ccccc23)cc1S(=O)(=O)NCC1CCCO1` (stereo not drawn), the activation was inactive: -20.5%.
Consider `O=C(c1cccc(Cl)c1)N1CCC(c2nc3c(nnn3Cc3ccc(F)cc3F)c(=O)[nH]2)CC1`, for which the activation is inactive: -13.7%.
Next, `Cc1cccc(NC(=O)c2oc3ccc(S(=O)(=O)N4CCCCC4)cc3c2C)c1C`: inactive: 5.03%; `COc1ccc(-c2[nH]c(-c3ccc(OC)c(OC)c3)nc2SCC(=O)Nc2ccccc2)cc1`: inactive: -33.7%; `Cc1ccc(Nc2c(-c3ccc(N(C)C)cc3)nc3ccccn23)cc1`: inactive: -22.9%.
Regarding `Cn1ccc2cc(S(=O)(=O)N3CCCN(C(=O)Nc4ccc(Br)cc4)CC3)ccc21`, the activation is inactive: 34.5%.
As to `C=CCNc1ncnc2ccc(Br)cc12`, the activation is inactive: 4.32%.
In the case of `CCOc1ccccc1C(=O)N(Cc1ccc(N(C)C)cc1)Cc1ccco1`, the activation was inactive: -32.8%.
With `CC(C)c1ccc(C2c3c(-c4ccccc4O)n[nH]c3C(=O)N2CCc2ccccc2)cc1` (stereo not drawn), the activation is inactive: 8.41%.
`Cc1ccc(-n2ncc3c(NNC(=O)c4ccccc4C)ncnc32)cc1`: the activation is inactive: -10.3%.
For the molecule `COc1ccc(-c2c(C)nn3c(N4CCC(C(=O)NCCC(C)C)CC4)cc(C)nc23)cc1OC`, the activation was inactive: 15.3%.
Next, `CCN(CC)CCn1c(=N)n(CC(O)COc2ccccc2C)c2ccccc21` (stereo not drawn): inactive: -0.595%; `Cc1ccc(Cn2c(=O)c3c(nc4n3CCN4c3cc(C)cc(C)c3)n(C)c2=O)cc1`: inactive: -5.41%.
As for `CCc1ccc(-c2[nH]c3c(c2-c2c(-n4cccc4)n(C)c(=O)n(C)c2=O)c(=O)n(C)c(=O)n3C)cc1`, the figure is inactive: 29.4%; as for `CC(C)CCn1c(SCc2ccc(F)cc2Cl)nc2ccsc2c1=O`, inactive: 0.55%; as for `CC1=C(C(=O)Nc2ccccc2)C(c2ccc(C(=O)O)cc2)n2nc(SCC(=O)c3ccc(C)cc3)nc2N1` (stereo not drawn), inactive: 40.4%.
For `COc1ccc(-c2nc(CCNC(=O)c3cc(OC)c(OC)c(OC)c3)cs2)cc1`, the activation is inactive: -4.05%.
Regarding `COCCCNC(=O)c1ccc(NC(=O)N2CCCCc3ccccc32)cc1`, the activation was inactive: -9.05%.
For `C#CC1(O)CC[C@H]2[C@@H]3CCC4=CCCC[C@@H]4[C@H]3CC[C@@]21C` (stereo partly drawn), the activation was active: 105%.
Turning to `COc1ccc(CNC(=O)Cc2c(C)c3c(cc(C)c4c(C)coc43)oc2=O)cc1`, the activation was inactive: -7.4%.
Next, `COc1ccc(Cl)cc1NC(=O)CCCn1c(=O)c2cccn2c2cccnc21`: inactive: -12.5%; `CCCN1CCN(CC2=C(C(=O)OCC)C(c3ccc(Cl)cc3)NC(=O)N2)CC1` (stereo not drawn): inactive: -3.63%.
In the case of `CCOC(=O)N1CCc2c(sc(NCc3ccc(OC)c(Br)c3)c2C(=O)Nc2cc(OC)ccc2OC)C1`, the activation is inactive: -8.68%.
For `CCOC(=O)c1ccccc1NC(=O)N(Cc1ccc(C)cc1)Cc1cccn1-c1nnc(N2CCCC2=O)s1`, the activation is inactive: -10.9%.
Consider `COC(=O)c1c(NC(=O)c2ccc(S(=O)(=O)N3CCCCC3C)cc2)sc2c1CCN(C(C)C)C2` (stereo not drawn), for which the activation is inactive: -15.1%.
As for `CCC(C)n1c(=N)c(S(=O)(=O)c2ccc(C)cc2)cc2c(=O)n3cc(C)ccc3nc21` (stereo not drawn), the figure is inactive: -9.65%; as for `Cc1ccccc1-c1noc(CSc2nnc(Cc3ccccc3)n2-c2ccc(F)cc2)n1`, inactive: -32.3%.
As for `COc1ccc(-c2noc(CSc3nnc(-c4ccncc4)n3-c3ccccc3)n2)cc1`, the figure is inactive: 7.23%; as for `Cc1ccc(CNC(=O)c2c(-c3ccccc3F)noc2C)o1`, inactive: -18.5%.
`COc1cccc(NC(=O)Cn2c(=O)n(CCCC(=O)NCc3ccc4c(c3)OCO4)c(=O)c3ccccc32)c1`: the activation is inactive: 0.596%.
Next, `Cc1ccc2c(c1)c(=O)c1ccccc1n2CCCC(=O)Nc1ccc(F)cc1F`: inactive: -6.26%; `O=C(NC1CC(=O)N(c2ccccc2)C1)C1CCCC1` (stereo not drawn): inactive: -8.06%; `Cc1ccc(CSc2nc(=O)c3c(C)cc(C)nc3n2C2CC2)cc1`: inactive: 8.18%.
`CC(Sc1ncc(S(=O)(=O)c2ccc(C(C)C)cc2)c(N)n1)C(=O)Nc1ccccc1` (stereo not drawn): the activation was inactive: 1.46%.
With `COc1ccc(NC(=O)Cn2c(=O)n(-c3ccc(Cl)cc3)c(=O)c3c(C)c(C(=O)N(C)C)sc32)cc1Cl`, the activation is inactive: -15.8%.
As to `COC(=O)c1ccc2nc(C)cc(Nc3ccc(O)cc3)c2c1`, the activation was inactive: -1.56%.
`CCOC(=O)c1cc(-c2ccc(F)cc2)n(CCC(=O)Nc2ccccc2OC)c1C`: the activation was inactive: -22.8%.
In the case of `Cc1cccc(Oc2nc3c(C)cccn3c(=O)c2/C=C(\C#N)c2nc3ccccc3s2)c1`, the activation is inactive: -2.39%.
As for `CCOC(=O)c1ccc(NC(=O)C(=O)NCc2ccco2)cc1`, the figure is inactive: 23.2%.
Turning to `COc1cccc(Cc2nc3ccccc3nc2SCC(=O)N2CCc3ccccc32)c1`, the activation was inactive: -10.8%.
Consider `COC(=O)c1cc(Cl)c(NC(=O)/C=C/c2ccc(Cl)cc2Cl)cc1OC`, for which the activation was inactive: 5.37%.
Next, `CCOC(=O)c1ccc(NC2=CC(c3ccc(Br)cc3)N(c3ccc(C(=O)OCC)cc3)C2=O)cc1` (stereo not drawn): inactive: -12.1%.
As for `Cc1cccc(C2NC(=O)c3c(sc4c3CCN(C)C4)N2)c1O` (stereo not drawn), the figure is inactive: 11.2%; as for `COCCNC(=O)CSc1nnc(-c2ccc(OC)c(OC)c2)c(-c2ccc(OC)c(OC)c2)n1`, inactive: -20.8%; as for `CCOc1ccc(N2CC(c3nc4ccccc4n3CCCOc3ccc(OC)cc3)CC2=O)cc1` (stereo not drawn), inactive: 0.858%.
As for `O=S(=O)(c1ccccc1)c1nc(-c2cccc(Cl)c2)oc1NCc1ccccc1`, the activation is inactive: 2.56%.
In the case of `COc1ccc(Br)c2c1-c1nc(NC(=O)c3ccccc3SC)sc1C2`, the activation is inactive: -27%.
Take `Cc1c(C(=O)NCCN(C)C)oc2c1-c1nn(Cc3ccccc3Cl)cc1CC2`: the activation was inactive: -11.1%.
Take `COc1ccccc1-c1c(C)nn2c(N3CCN(c4ccc(Cl)cc4)CC3)cc(C)nc12`: the activation was inactive: -11.8%.
`CCCCOc1ccc(S(=O)(=O)Nc2cccc(-c3ccc(N4CCOCC4)nn3)c2)cc1`: the activation is inactive: 9.04%.
Turning to `COc1ccc(N(CC(=O)N2CCN(c3cc(C)ccc3C)CC2)S(=O)(=O)c2c(C)noc2C)cc1`, the activation was inactive: -7.34%.
Next, `CC(Sc1nc(-c2ccccc2)c(C#N)c(=O)[nH]1)C(=O)Nc1ccc(F)cc1` (stereo not drawn): inactive: 3.33%.
For `CCOC(=O)c1ccc(Nc2nc(C)cc(C)n2)cc1`, the activation is inactive: 5.53%.
For the molecule `O=C1CC(c2nc3ccccc3n2CCC2CCCCC2)CN1c1ccccc1Cl` (stereo not drawn), the activation was inactive: -6.47%.
As to `Cc1cccc(N2CCN(C(=O)CCCn3c(=O)[nH]c4ccsc4c3=O)CC2)c1C`, the activation is inactive: 19%.
Next, `CCCCCCc1c(C)c2c(cc(C)c3c(C)c(C)oc32)oc1=O`: inactive: -3.16%.
As for `CC(=O)c1cccc(NC(=O)C2=CC(c3ccc(F)cc3)=NS(=O)(=O)N2C)c1`, the figure is inactive: -8.35%; as for `CCCCN(C(=O)Nc1ccc(Cl)cc1)C1CCN(C(C)=O)CC1`, inactive: -1.64%.
As for `Oc1c(C(c2ccccc2F)N2CCC3(CC2)OCCO3)sc2nc(-c3ccco3)nn12` (stereo not drawn), the figure is inactive: 11.5%; as for `CCN(c1ccc(Cl)cc1)S(=O)(=O)c1nnc(NC(=O)c2ccco2)s1`, inactive: 26.2%.
In the case of `COc1ccc(OC)c(CNC(=O)c2ccc(Sc3ccc(Cl)cc3)c(NC(C)=O)c2)c1`, the activation is inactive: -11.4%.
As for `O=C(NCCc1ccccc1)c1ccc(Cn2c(=O)c3cccn3c3cccnc32)cc1`, the activation is inactive: -20.3%.
Consider `Cc1ccc2onc(CC(=O)N3CCN(c4ccc(Cl)cc4)CC3)c2c1`, for which the activation is inactive: -27.5%.
For `O=C(NC1CCCCC1)c1ccc(CSc2nc3ccncc3n2Cc2ccccc2)cc1`, the activation is inactive: 31%.
For the molecule `COC(=O)c1cc2oc3ccccc3c2n1CC(=O)Nc1ccc(OC)c(OC)c1`, the activation was inactive: 0.157%.
In the case of `CCN1C(=O)C=CC1=O`, the activation was inactive: 5.21%.
Take `Cc1ccc(NC(=O)Cn2c(=O)n(CCCC(=O)NCc3ccc4c(c3)OCO4)c(=O)c3ccccc32)cc1`: the activation was inactive: -12%.
As for `CCOc1cc(C2C(C(=O)Nc3ccccc3)=C(C)Nc3ncnn32)cc(Br)c1O` (stereo not drawn), the figure is inactive: 31.7%; as for `COc1ccc(NC(=O)CN2C(=O)CSc3ccc(S(=O)(=O)N(C)C)cc32)cc1OC`, inactive: -5.63%; as for `Cc1cc2c(cc1S(=O)(=O)N(CCO)Cc1ccccc1)OCC(=O)N2`, inactive: -9.17%.
Next, `CCNS(=O)(=O)c1cc(-c2nnc(Nc3cccc(C(F)(F)F)c3)c3ccccc23)ccc1C`: inactive: -23.4%; `O=C(NC(Cc1cc(=O)[nH]c2ccccc12)C(=O)O)c1ccc(Cl)cc1` (stereo not drawn): inactive: 1.94%.
